From article PMC4336329 (PLoS ONE, 2015)
Screen size: about 310,000 compounds; about 2,200 (0.71%) showed an effect of 50% or more. Effects have a minus sign here. The list shows a part of the results.

Target: human ether-à-go-go-related gene (hERG) potassium channel (human, UniProt Q12809)
Experiment: primary screen, population patch clamp on CHO cells stably expressing hERG

Chain of human ether-à-go-go-related gene (hERG) potassium channel (Q12809 whole entry, looked up): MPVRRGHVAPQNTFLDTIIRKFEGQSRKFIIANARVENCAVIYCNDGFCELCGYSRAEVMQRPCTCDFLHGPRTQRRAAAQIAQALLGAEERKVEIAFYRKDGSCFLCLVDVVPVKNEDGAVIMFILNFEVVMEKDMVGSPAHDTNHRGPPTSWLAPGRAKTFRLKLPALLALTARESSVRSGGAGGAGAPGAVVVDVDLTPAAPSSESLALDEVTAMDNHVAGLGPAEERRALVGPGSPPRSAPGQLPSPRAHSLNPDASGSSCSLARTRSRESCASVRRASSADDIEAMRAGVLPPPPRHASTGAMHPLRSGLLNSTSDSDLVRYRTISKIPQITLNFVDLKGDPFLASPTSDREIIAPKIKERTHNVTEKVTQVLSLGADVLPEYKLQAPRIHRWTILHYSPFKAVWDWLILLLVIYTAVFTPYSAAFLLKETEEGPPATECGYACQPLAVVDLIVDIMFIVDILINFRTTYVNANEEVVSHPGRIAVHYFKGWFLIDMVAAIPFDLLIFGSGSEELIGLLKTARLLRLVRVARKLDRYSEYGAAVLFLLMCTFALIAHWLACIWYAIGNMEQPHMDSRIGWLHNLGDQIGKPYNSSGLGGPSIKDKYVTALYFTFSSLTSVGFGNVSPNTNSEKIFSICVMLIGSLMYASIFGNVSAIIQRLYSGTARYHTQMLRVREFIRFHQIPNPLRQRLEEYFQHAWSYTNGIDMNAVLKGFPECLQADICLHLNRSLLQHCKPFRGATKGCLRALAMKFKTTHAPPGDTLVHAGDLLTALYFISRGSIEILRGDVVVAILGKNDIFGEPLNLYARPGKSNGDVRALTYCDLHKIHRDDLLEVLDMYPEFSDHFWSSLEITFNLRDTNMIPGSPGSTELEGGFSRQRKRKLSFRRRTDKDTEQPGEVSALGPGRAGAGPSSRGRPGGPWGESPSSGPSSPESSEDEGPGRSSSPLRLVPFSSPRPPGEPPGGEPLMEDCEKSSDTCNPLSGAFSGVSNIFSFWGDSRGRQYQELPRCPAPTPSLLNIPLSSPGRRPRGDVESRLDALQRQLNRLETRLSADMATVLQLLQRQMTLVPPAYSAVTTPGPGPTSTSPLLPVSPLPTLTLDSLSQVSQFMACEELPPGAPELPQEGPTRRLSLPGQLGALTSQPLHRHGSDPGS

In order of rising “hERG current change (%, negative = inhibition) at 1uM” value:
1. COc1ccc(-c2nnc(OCc3nc4ccccc4n3C)c3ccccc23)cc1  -12.9%
2. O=C(c1cc([N+](=O)[O-])ccc1N1CCCCC1)N1CCCCC1  -6.51%
3. CC(=O)Nc1ccc(Oc2ncccn2)c(Cl)c1  -4.47%
4. COc1ccc(N2CCN(C(CNC(=O)c3cccc(Cl)c3)c3cccnc3)CC2)cc1 (centres unmarked)  -4.06%
5. O=C(c1ccc(-n2c(SCc3cccc(F)c3)nc3ccccc3c2=O)cc1)N1CCOCC1  -1.5%
6. O=C(NC1CCCC1)C(c1ccco1)N(C(=O)c1ccco1)c1ccccc1 (centres unmarked)  3.05%
7. O=C(Nc1ccc(Br)cc1)Nc1ccccc1F  4.58%
8. COCCN(C(=O)COC(=O)c1cc2ccccc2cc1OC)c1c(N)n(Cc2ccccc2)c(=O)[nH]c1=O  4.64%
9. COc1ccccc1-n1c(CNC(=O)c2cccs2)n[nH]c1=S  6.11%
10. Cc1cc(C)n2nc(C(=O)OCC(=O)N(C)Cc3ccccc3)nc2n1  6.47%
11. CC(C)(C)c1[nH]nc2c1C(Cc1ccccc1)C(C#N)=C(N)O2 (centres unmarked)  8.7%
12. Nc1n[nH]c(C2CC2)c1N=Nc1ccc(Cl)cc1  8.81%
13. CCOC(=O)Cc1nn2c(=O)cc(C)nc2s1  9.41%
14. Cc1cc(N2CCC(C)CC2)nc2ccc(N3C(=O)CCC3=O)cc12  9.64%
15. COc1ccc(CNC(=O)C/C(C)=N/NC(=O)Cc2ccc(OC)c(OC)c2)cc1  10.4%
16. N#Cc1cc(C(=O)c2cc(Br)ccc2O)cn(Cc2ccccc2)c1=O  11%
17. Cc1ccc(NC(=O)[C@H](Cc2ccccc2)NC(=O)[C@@H]2Cc3ccccc3CN2)c(C)c1  11.1%
18. COc1ccc(S(=O)(=O)NC(C)C(=O)NCc2cccnc2)cc1OC (centres unmarked)  11.7%
19. Cn1c(SCC(=O)Nc2cc(S(=O)(=O)N3CCOCC3)ccc2N2CCOCC2)nnc1-c1ccncc1  12.1%
20. O=C(Nc1cccc(C(F)(F)F)c1)c1ccc2nc(-c3ccco3)c(-c3ccco3)nc2c1  14.1%
21. COc1ccc(-n2nc(C(=O)NCC(=O)NC(C)C)c3ccccc3c2=O)c(OC)c1  15.3%
22. CC(NCc1nc2ccccc2n1C)C12CC3CC(CC(C3)C1)C2 (centres unmarked)  16.3%
23. CC(C)[C@H](NC(=O)c1ccc(Cl)c([N+](=O)[O-])c1)C(=O)NCc1ccc(Cl)cc1Cl  17.5%
